Measurements: PubChem BioAssay AID1159614 (National Center for Advancing Translational Sciences (NCATS), 2016)
The whole screen tested about 45,000 compounds, of which about 65 (0.1%) were called active. Calls come from the whole dose curve; as a rule, active = well fitted activation curve with a large enough effect; inconclusive = small, poorly fitted or top-dose-only effect; inactive = no such curve, though single readings can be large or run the other way. Some of the results follow.

Each compound was assayed against Galactocerebrosidase (Homo sapiens) (UniProt P54803) (assay: A Novel Cell-Based Assay to Identify Small Molecules for B -Galactocerebrosidase). Details: 145M-Twi-hGALC-G270D cells (Twitcher mouse brain line with human GALC G270D), HMU-beta-Gal fluorescence, 48 h; series mostly up to 57.5 µM; activation: at the top concentration.
In short: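 Fluorogenic HMU-b-Gal hydrolysis (0.1 mM final, pH 5.2 citrate-phosphate with 1 mg/mL sodium taurocholate; carbonate stop buffer) measures mutant GALC activity after compound treatment of live 145M-Twi Twitcher brain cells stably carrying human GALC-G270D, with wild-type GALC line alongside; activation sought.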
Note: 0% is about no effect; nearly all actives have a fitted effect of over 65% in size.

Sequence of UniProt P54803 (P54803 whole entry, looked up): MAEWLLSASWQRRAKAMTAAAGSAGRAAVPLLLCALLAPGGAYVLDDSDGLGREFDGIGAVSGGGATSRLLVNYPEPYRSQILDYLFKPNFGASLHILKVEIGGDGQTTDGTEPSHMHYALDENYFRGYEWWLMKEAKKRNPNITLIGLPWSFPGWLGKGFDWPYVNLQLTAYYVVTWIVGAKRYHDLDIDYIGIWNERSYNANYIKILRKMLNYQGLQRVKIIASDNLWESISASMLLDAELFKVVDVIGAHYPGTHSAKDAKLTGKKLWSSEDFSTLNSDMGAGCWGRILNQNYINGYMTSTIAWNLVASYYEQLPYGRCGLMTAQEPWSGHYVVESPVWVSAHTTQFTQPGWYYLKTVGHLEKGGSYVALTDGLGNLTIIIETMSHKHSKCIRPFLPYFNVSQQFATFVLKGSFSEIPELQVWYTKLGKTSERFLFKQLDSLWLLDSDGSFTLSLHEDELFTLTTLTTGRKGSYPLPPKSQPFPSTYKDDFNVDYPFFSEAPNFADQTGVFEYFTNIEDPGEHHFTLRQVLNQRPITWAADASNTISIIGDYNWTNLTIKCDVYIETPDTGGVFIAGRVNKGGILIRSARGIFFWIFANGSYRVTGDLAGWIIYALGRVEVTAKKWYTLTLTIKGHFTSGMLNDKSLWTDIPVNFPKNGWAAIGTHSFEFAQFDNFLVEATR

activation, inactive:
COc1ccc(-c2n[nH]c3c2C(c2ccc(Cl)cc2Cl)NC3=O)cc1 (stereo not given) -4.39%
COc1ccc(-n2c(=O)c3c(c4cc(OC)ccc4n3C)n(CC(=O)NCC3CCCO3)c2=O)cc1 (stereo not given) 23.5%
CCN(CCCNC(=O)c1ccc(Sc2ccc(C)cc2)c(NC(C)=O)c1)c1cccc(C)c1 -9.87%
CCOC(=O)c1ccc(-c2ccc(/C=C(\C#N)C(=O)Nc3c(C)cccc3Cl)o2)cc1 -7.14%
COc1cc(Cl)c(NC(=O)c2cc(S(=O)(=O)N3CCOCC3)cn2C)c(OC)c1 1.86%
CCc1nn2c(-c3ccco3)ccnc2c1-c1ccc(F)cc1 -1.72%
C#CCSc1nc2sc3c(c2c(=O)n1-c1cccc(OC)c1)CCN(C(C)=O)C3 -10.2%
CCOC(=O)CNC(c1ccccc1)c1cc(Br)ccc1NC(=O)c1ccc(Cl)cc1 (stereo not given) -18.8%
CC(=O)c1c(C)oc2c(Cl)cc(NS(=O)(=O)c3cc(C)c(C)cc3C)cc12 -19.8%
CC(C)(C)NC(=O)Cn1cc(S(=O)(=O)Cc2ccc(F)cc2)c2ccccc21 -10.2%
COCCn1c(SCC(=O)c2ccc(OC)cc2)nc2cc(C(=O)NC3CCCC3)ccc2c1=O -12.2%
CCCOc1ccc(-c2nonc2NC(=O)COc2ccc(C)cc2)cc1OCCC 4.69%
CCC(=O)Nc1ccc2nc(SCCOc3cccc(C)c3)sc2c1 -19.6%
Cc1ccc(S(=O)(=O)c2nnn(CC(=O)Nc3ccccc3C)c2N)cc1C -14.1%
CCOc1ccc(OCC)c(NC(=O)c2cnc3c(-c4ccccc4)c(C)nn3c2C)c1 -0.474%
CC(C)Cc1ccc(S(=O)(=O)Nc2ccc3[nH]c(=O)[nH]c3c2)cc1 -12.2%
O=C(NCc1ccccc1F)C(=O)NCC(c1cccs1)S(=O)(=O)c1cccs1 (stereo not given) -0.981%
O=C(CCC1N=C2c3ccccc3N=C(SCc3ccccc3Cl)N2C1=O)NCc1cccs1 (stereo not given) -13.3%
COc1ccccc1OCC(=O)NCC1(N2CCOCC2)CCCCC1 -20.7%
O=C(NCc1cccc(Cl)c1)c1ccc(CS(=O)Cc2ccccc2Cl)o1 (stereo not given) -14.4%
Cc1ccc(-n2c(=O)c3c(c4cc(C)ccc4n3C)n(CC(=O)NCCC3=CCCCC3)c2=O)cc1 -5.88%
COC(=O)c1cc2oc(C)cc2n1Cc1cccc(Cl)c1 -7.39%
O=c1c2oc3ccccc3c2n(Cc2cccc(Cl)c2)c(=O)n1Cc1ccc2c(c1)OCO2 -8.13%
CCOc1ccc2nc(N(Cc3cccnc3)C(=O)c3ccc4c(c3)OCCO4)sc2c1 -2.59%
COC(=O)c1cc2sc(C)cc2n1Cc1ccc(F)cc1Cl -6.65%
COc1cccc(CSc2nc3cc(OC)c(OC)cc3c3nc(CCn4nc(C)cc4C)nn23)c1 5.67%
O=C(NC1(C(F)(F)F)NC(=O)N(CCc2ccccc2)C1=O)c1ccccc1F (stereo not given) -12.2%
O=S(=O)(c1ccc(Cl)cc1)c1nc(-c2ccccc2Br)oc1N1CCOCC1 -16.5%
COc1ccccc1CNC(=O)Cn1c(=O)ccc2cc(S(=O)(=O)N3CCC(C)CC3)ccc21 -14%
CC1Cc2ccccc2N1S(=O)(=O)c1nnc(NC(=O)c2ccccc2Br)s1 (stereo not given) -12.3%
COc1ccc(-c2cn3nc(N4CCCC(C(=O)Nc5ccc(Cl)cc5C)C4)sc3n2)cc1 (stereo not given) -4.12%
Cc1[nH]c2ccc(F)cc2c1CCNC(=O)c1cc2cc(Cl)ccc2oc1=O -3.75%
COc1ccc(S(=O)(=O)NCC(c2cccs2)S(=O)(=O)c2ccc(C)cc2)cc1F (stereo not given) -3.23%
CC(C)Oc1ccc(C(=O)Nc2ccc3oc(-c4ccncc4)nc3c2)cc1 3.77%
Cn1c(=O)c2c(nc(NCCc3ccccc3)n2Cc2cccc(Br)c2)n(C)c1=O -15.1%
CCCCN(CC)CCCNC(=O)c1cn(CC(C)C)c(=O)c2c1c1ccccc1n2C -6.33%
O=c1n(Cc2ccc(F)cc2Cl)c2ccccc2c2nc(-c3ccccc3)nn12 -14.4%
COc1ccc2c(c1)CCc1c(C(=O)Nc3c(C)nn(Cc4ccccc4Cl)c3C)noc1-2 -1.76%
Cc1ccc(CCNC(=O)c2nnc(Cc3cccc(F)c3)o2)cc1 -14.4%
COc1ccc(Cl)cc1NS(=O)(=O)c1c(C)nc2scc(C)n2c1=O -9.63%
Cc1ccc(CNC(=O)c2c[nH]c3ccc(S(=O)(=O)Nc4ccc(C(C)C)cc4)cc3c2=O)cc1 -3.3%
COCCn1c(CNC(=O)c2cc([N+](=O)[O-])ccc2Cl)nc2cccnc21 8.64%
COc1cc(NC(=O)C(NC(=O)C2CCC(C)CC2)C(C)C)cc(OC)c1OC (stereo not given) -15.6%
COc1ccc(NC(=O)Cn2cnc3c(nc4n3CCCCC4)c2=O)c(OC)c1 -21%
COCCCn1c(=N)c(C(=O)NC2CCCCC2)cc2c(=O)n3ccccc3nc21 -14.7%
COc1ccc(C(=O)Nc2onc3c2CCCC3)cc1 -2.33%
Cc1c(CNC2CCCCCC2)c(C(=O)O)c(C)n1Cc1c(F)cccc1Cl -10.2%
COc1ccc(C2=CC(c3ccc(N(C)C)cc3)n3nnnc3N2)cc1 (stereo not given) -2.44%
CCOC(=O)c1ccccc1NC(=O)Cc1c(C(=O)O)c(C)cn1C -3.85%
Cc1ccc(-n2ncc(C(=O)N3CCN(c4ccccn4)CC3)c2C2CCN(C(=O)OC(C)(C)C)CC2)cc1C -12.6%
Cc1cccc(CS(=O)(=O)CC2Nc3ccc(C(=O)NCc4ccccc4)cc3NC2=O)c1 (stereo not given) -5.81%
COc1ccc(N2CCN(C(=O)Cn3cnc4sc(C)c(S(=O)(=O)N5CCC(C)CC5)c4c3=O)CC2)cc1 -13.9%
CCOC(=O)c1ccc(N2C(=O)c3n[nH]c(C)c3C2c2ccc(O)c(OC)c2)cc1 (stereo not given) -11.7%
O=C(Nc1cc(-c2nc3ccccc3o2)ccc1Cl)c1cccc2c(Cl)cccc12 -28.4%
CCOC(=O)c1ccc(NC(=O)Cc2coc3cc(C)cc(C)c23)cc1 -13.4%
Cc1ccc(NC(=O)Cn2c(=O)n(Cc3ccc4c(c3)OCO4)c(=O)c3ccc(C(=O)NC4CCCCC4)cc32)cc1 -13.7%
Cc1cccc(NC(=O)CSc2nc(=O)n(CCN3CCOCC3)c3c2CCC3)c1C -15.6%
C=CCN1C[C@H](C(=O)N(CCCN(C)C)C(=O)NCC)C[C@@H]2c3cccc4[nH]cc(c34)C[C@H]21 -17.1%
Cc1cccc(Cn2nnc3c(=O)[nH]c(C4CCN(C(=O)c5ccccc5F)CC4)nc32)c1 -17%
CCCC(=O)NCc1nc2cccnc2n1Cc1ccc(F)cc1 14.1%
